Results published in the RNAGym collection of RNA variant scans (doi:10.7554/elife.90254).
Read counts are not given, so values of variants with three or more changes are uncertain.

B1: LINE1-mini (parent)
chain: GGCAGAGCUCAACACAGCGUGGCAAAGUGGCUGUGGCUAGACUGCC

Variants of: B1
Assay: self-cleavage, relative activity (ratio to wild type); higher = more cleavage; in vitro, sequencing; the parent is a self-cleaving ribozyme

| Variant | self-cleavage |
| --- | --- |
| G1U A41G C46G | 0.13 |
| G1C U9C G19A A26C A41U | 0.04 |
| A6G C8A G33U C46A | 0.13 |
| A11U G21U U28G U38A | 0.01 |
| A4G A12U C18A G21C G29U A41U C45U | 0.08 |
| C3G G30A U38A | 2.34 |
| G2A G17U A24U | 0.12 |
| A11C G29A U34A G40U | 0.03 |
| A6C C15U C31U U38G | 0.04 |
| U9G A12U C13A A14U G27U U43C | 0.04 |
| A6C G35U C37G A39U | 0.03 |
| G33U G35U G36A G44A | 0.03 |
| C18A G19C G36C | 0.04 |
| G33C G44A C45A | 0.03 |
| G1U A14C G29U | 0.03 |
| C3A C10U A11U C18A G29C C37G U43A C46A | 0 |
| C3U C10A C31G | 0.02 |
| G2C A6G G44A | 0.02 |
| C13U G27U U32C | 0.07 |
| C3A A26C U28G | 0.16 |
| A4U G5C G7C C45A | 0.1 |

| Variant | self-cleavage |
| --- | --- |
| C10U A14G C31A G36C | 0.02 |
| G5C A26G C31U | 0.03 |
| A11U A12U G17C G30C A41C G44C | 0.01 |
| C8A U34C A39C | 0.24 |
| G17A C18U U28A U32C G33U U34G C37A A39C | 0 |
| G2A A6C C18U | 0.23 |
| G1C A6U G44A | 0.01 |
| G2A A14G G35A | 0.28 |
| C13A A14G G21A G27A G35C | 0.27 |
| U9G A14U C31G G35U | 0 |
| G22C U34C G35U C45U | 0.02 |
| U9G G33A G36U U38C | 0.06 |
| A4C G7C G21C G29U G35C G36C U43A C46A | 0.07 |
| A26U G30A C42A | 0.19 |
| A4U C13G G27C | 0.03 |
| G2A G17A G29A | 0.36 |
| A6G C8G G22C G40C | 0.03 |
| C13A A16C G27C G35C | 0.15 |
| U20G A25U U28G | 0.45 |
| G1C G2C C8G G19U G21C G27C | 0.02 |
| C3U G5C U38G | 0.03 |

| Variant | self-cleavage |
| --- | --- |
| G1C A12U G22C U43G | 0.01 |
| C8U A14C C23A C42A | 0.22 |
| A16C C18A G29A C37A | 0.06 |
| A6G A26G A39C | 0.03 |
| A11C G40U C42A | 0 |
| G1A C8G G22U C23G C46A | 0.14 |
| A4U G5U C15A A25C | 0.03 |
| A6G G40U A41U C42A U43A | 0.07 |
| G1A C8U C10G A26G G35A G36U | 0.01 |
| G27U C31U C42G | 0.08 |
| C15A C18A A26U G33A | 0.05 |
| A4C A6C G21A G27C U32A G35U | 0.13 |
| G1U G5A U34A | 0.07 |
| C3A C13A G35A A39U | 0.09 |
| G2A A16U C23G | 0.24 |
| A12U A14U A26G G29U G40A | 0.1 |
| G7U C8U A12G G33C | 0.09 |
| A4U A6C C23A U28C | 0.02 |
| A26C G30C U32A G35C | 0.14 |
| A6C G17C A24U G30U C45U | 0.12 |
| G5U G7A C8G G29A | 0.19 |

| Variant | self-cleavage |
| --- | --- |
| G2A G19A A25C G30C U32A U38C | 0.16 |
| G17U C37U C46U | 0.05 |
| A14G C31G G33U C42G U43G | 0.02 |
| A6U C8U C10U A11U U28G G44C C45A | 0 |
| G22C U34C C37A C42A | 0.01 |
| G22A C23A U34A G40U C45G | 0.06 |
| A6G A16C C45G | 0.07 |
| G7U A16G A41U | 0.04 |
| A16U C18G G22C C46G | 0.05 |
| C10A A14C G21A | 0.03 |
| G7C G17U A25U G40A C45U | 0.09 |
| A6C C37U U43A | 0.06 |
| G2U G5A G30U | 0.1 |
| C18A A24C U32C | 0.09 |
| A14G G35A G44A | 0.27 |
| G1A A12U C15U | 0.12 |
| C13A U20C C31A G33U | 0.06 |
| G1U G2A G7A | 0.29 |
| C8G A12G C37A C42A | 0.15 |
| G2C A6G G21U C31G | 0.04 |
